Laboratory results published in PubChem BioAssay (NCATS).
This list was built around the results that the source calls inconclusive (neither active nor inactive); the mix of calls is not that of the screen. For some assays here: Where the call is inconclusive, the potency comes from a doubtful curve fit. Calls of active or inactive are those of the source. Unless noted, calls come from the whole dose curve; as a rule, active = well fitted curve in the direction sought with a large enough effect; inconclusive = small, poorly fitted or top-dose-only effect, or another doubt; inactive = no such curve, though single readings can be large; an effect the other way counts as inactive or inconclusive.

Tests used:
[1] = NFAT Signaling Pathway (AID 444; active = well fitted curve in either direction with a large enough effect, not every such curve was filed as active; inconclusive = small, poorly fitted or top-dose-only effect, or another doubt;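 note: carbachol stimulus at about its EC50 of 1 µM final; % is set by controls: 0 for no effect and ±100 for the full control effect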); settings: Jurkat NFAT-bla M1, carbachol, beta-lactamase ratio, 5 h; at 17.2 µM (top of the series) unless noted
Outline: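 Jurkat cells carrying an NFAT-driven β-lactamase reporter and co-transfected muscarinic M1 receptor were treated with compound plus carbachol (1 uM final, an EC50 level) for 5 h at 37 °C. CCF4 loading followed for 1 h at RT; 460/530 nm ratio gave %activity.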

[2] = molecular target: Cytochrome P450 2C9 (Homo sapiens) (UniProt P11712); assay: qHTS Assay for Inhibitors and Substrates of Cytochrome P450 2C9 (AID 883); settings: recombinant CYP2C9, luciferin-H luminescence, 60 min; activity change, negative = inhibition: at 57.1 µM (top of the series); note: potency is the fitted concentration of half-maximal effect; nearly all actives have a fitted effect of over 60% in size
Outline: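 A luminogenic readout tracked human CYP2C9 (10nM) converting deoxyluciferin (100uM, at KM) in 25mM KPO4 during 60 min at 37C with regenerated NADPH. Values normalized to 57uM sulphaphenazole as complete inhibition.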

[3] = qHTS Assay for Identification of Small Molecule Agonists for Thrombopoietin (TPO) Signaling Pathway (AID 917); settings: TPO signaling pathway reporter cells, agonist qHTS, stimulated with TPO at its EC50; activity, positive = activation: at 38.5 µM (top of the series); note: potency is the fitted concentration of half-maximal effect
Outline: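 Luminescence from a Glycoprotein IIb promoter–driven luciferase reporter served as read-out in murine Ba/F3 cells carrying the human TPO receptor. Cells, deprived of IL-3 overnight, received compounds with 26 pM TPO and were incubated 24 hrs at 37 C.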

[4] = qHTS Assay for Identification of Small Molecule Agonists for NFkB Signaling Pathway (AID 928; calls by dose curve); settings: NFkB beta-lactamase reporter cells, blue/green ratio
Outline: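 ME-180 NFkB-bla cells carry a beta-lactamase reporter under an NFkB response element. Compound plus 10 pM TNF alpha (final) was applied for 5 hrs at 37 C. After 2 hrs with LiveBLAzer substrate, 460/530 nm emission was read at 405 nm excitation.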

[5] = molecular target: Muscarinic acetylcholine receptor M1 (Rattus norvegicus) (UniProt P08482); assay: qHTS Assay for Antagonists of Acetylcholine Muscarinic M1 Receptor: Kinetic Measurement of Intracellular Calcium Response (AID 943); note: potency is the fitted concentration of half-maximal effect; nearly all actives have a fitted effect of over 75% in size
Outline: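 Intracellular calcium flux, recorded with Fluo-4 in a kinetic plate reader, served as signal; the response to carbachol at EC80 (100 nM final) was taken as maximal over minimal fluorescence after a 10 min compound pre-incubation in rat M1-CHO cells.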

[6] = molecular target: Muscarinic acetylcholine receptor M1 (Rattus norvegicus) (UniProt P08482); assay: qHTS Assay for Antagonists of Acetylcholine Muscarinic M1 Receptor: Measurement of IP-One Response (AID 944); note: nearly all actives have a fitted effect of over 75% in size
[7] = molecular target: Pyruvate kinase PKM (Homo sapiens) (UniProt P14618); assay: qHTS Assay for Inhibitors of Human Muscle Pyruvate Kinase (AID 958)
Outline: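 Screening used highly purified human pyruvate kinase M2 under submaximal activity, with PEP at its Km and ADP below Km. After an hour at room temperature, ATP was read by luciferase luminescence.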

[8] = molecular target: Pyruvate kinase (Leishmania mexicana) (UniProt Q27686); assay: qHTS Validation Assay for Activators of Leishmania Mexicana Pyruvate Kinase (AID 959); settings: purified L. mexicana pyruvate kinase, enzyme activity
Outline: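 An endpoint luciferase assay: 0.2 nM LmPYK E451W turns over 0.5 mM PEP with 0.1 mM ADP for 1 h at room temperature, pH 7.2, before PKLight addition. Values are normalized to DMSO-only wells.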

[9] = qHTS for differential inhibitors of proliferation of Plasmodium falciparum line 7G8 (AID 1815);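 note: parasite growth measured after three days of incubation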; note: potency is the fitted concentration of half-maximal effect;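 for activity change, negative = inhibition: plate controls were vehicle wells for no effect and reference inhibitor wells for full effect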
[10] = qHTS for differential inhibitors of proliferation of Plasmodium falciparum line GB4 (AID 1816); settings: Potency: Plasmodium falciparum GB4 proliferation inhibition;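 note: potency is the fitted concentration of half-maximal effect; parasite growth measured after 72 h incubation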
[11] = qHTS for differential inhibitors of proliferation of Plasmodium falciparum line 3D7 (AID 1876);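 note: parasite growth measured after three days of culture; 0% = vehicle wells and -100% = reference inhibitor wells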
[12] = qHTS for differential inhibitors of proliferation of Plasmodium falciparum line W2 (AID 1883); settings: Potency: Plasmodium falciparum W2 proliferation inhibition;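 note: parasites grown with compound for 72 h before lysis and staining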; note: potency is the fitted concentration of half-maximal effect;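 for activity change, negative = inhibition: 0% = vehicle wells and -100% = control inhibitor wells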
[13] = qHTS for differential inhibitors of proliferation of Plasmodium falciparum line HB3 (AID 1886); settings: Potency: Plasmodium falciparum HB3 proliferation inhibition;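 note: potency is the fitted concentration of half-maximal effect; parasites grown with compound for 72 h before SYBR Green readout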
[14] = molecular target: Ferritin light chain (Equus caballus) (UniProt P02791); assay: qHTS Validation Assay for Identification of Novel General Anesthetics (AID 2323); note: % is set by controls: 0 for no effect and ±100 for the full control effect
Outline: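 Fluorescence at 535 nm (excitation 380 nm) reported loss of 1-AMA binding to horse-spleen apoferritin (10 uM) in PBS with 50% saturated 1-aminoanthracene, after 10 min room-temperature incubation with compound; values from Hill fits of normalized response.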

[15] = qHTS for differential inhibitors of proliferation of Plasmodium falciparum line D10 (AID 1877);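 note: potency is the fitted concentration of half-maximal effect; parasites grown with compound for 72 h before DNA staining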
[16] = molecular target: RecQ-like DNA helicase BLM (Homo sapiens) (UniProt P54132); assay: qHTS Validation Assay for Inhibitors of Bloom's syndrome helicase (BLM) (AID 2364); note: potency is the fitted concentration of half-maximal effect
Outline: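 BLM 50 nM in 25 mM Tris-HCl pH 8.0, 5 mM NaCl, 2 mM MgCl2, 1 mM DTT, 0.01% Tween-20, 2.5 ug/ml poly(dI-dC); 15 min cpd preinc, RT. Start: 200 nM forked DNA + 2 mM ATP (final). TAMRA read, 2 reads 2 h apart.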

[17] = Quantitative high throughput screen for delayed death inhibitors of the malarial parasite plastid, 96 hour incubation (AID 488745); note: potency is the fitted concentration of half-maximal effect; nearly all actives have a fitted effect of over 70% in size
Outline: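 Growth of reporter-bearing P. falciparum in red cells is measured after 96 h with compound, covering two erythrocytic cycles. Luminescence from the integrated luciferase serves as the growth signal.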

[18] = molecular target: 3',5'-cyclic-AMP phosphodiesterase 4B (Homo sapiens) (UniProt Q07343); assay: qHTS Assay for Inhibitors of PDE-IV (AID 607; active = well fitted activation curve with a large enough effect in the main read-out, with a control signal flat, not every such curve was filed as active; inconclusive = small, poorly fitted or top-dose-only effect, or effect the other way, or a change in a side signal; note: potency is the fitted concentration of half-maximal effect); settings: HEK293 ACTOne CNG channel cells, membrane potential fluorescence; activation (PDE inhibition): at 22.9 µM (top of the series)
Outline: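 Live HEK293 cells with a modified cyclic nucleotide-gated (CNG) channel report intracellular cAMP via membrane-potential dye fluorescence (ex 535/em 590 nm). Endogenous PDE-IV was targeted. Compounds were tested at up to 22.9 uM final; RO 20-1724 100 uM served as control.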

[19] = molecular target: Dual specificity protein kinase CLK4 (Homo sapiens) (UniProt Q9HAZ1); assay: qHTS Assay for Inhibitors of CDC-like Kinase 4 (ADP-FP Assay) (AID 1795); note: potency is the fitted concentration of half-maximal effect;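 note: recombinant human CLK4 phosphorylating RS repeat peptide at 1 µM ATP; nearly all actives have a fitted effect of over 60% in size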; for activity change, negative = inhibition: % is set by controls: 0 for no effect and ±100 for the full control effect
Outline: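 Clk4 6.25 nM; RS peptide 100 uM; ATP 1 uM; 25 mM Tris pH 7.5, 10 mM MgCl2; 1 h reaction. ADP detected via antibody/orange tracer FP displacement; TG003 positive control.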

[20] = qHTS Assay for Modulators of Human Peripheral Myelin Protein 22 (PMP22) Expression/Activity (AID 1967; active = well fitted curve in the direction sought with a large enough effect in the signal ratio; inconclusive = small, poorly fitted or top-dose-only effect, or effect the other way, or a change in a side signal; inactive = no such curve, though single readings can be large or run the other way; the % refers to the signal ratio; note: potency is the fitted concentration of half-maximal effect); settings: Cell-based PMP22 reporter, dual-color luciferase ratio, mouse Pmp22 promoter in mouse Schwann cells; activity change (ratio): at 115 µM (top of the series), 0% = compound-free control cells
Outline: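 Luminescence ratio of Pmp22 promoter-driven green luciferase to EF-alpha-driven red luciferase, in engineered mouse MSC80 Schwann cells, served as read-out. Compounds were incubated 24h; untreated cells defined 0% Activity; curves were classified by r2, magnitude and activity.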

[21] = Validation screen for small molecules that induce DNA re-replication in MCF 10A normal breast cells (AID 463097); note: 0% is about no effect; nearly all actives have a fitted effect of over 60% in size
Outline: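 Image-based qHTS: normal breast cells are incubated with compound for 48 hr, stained with Hoechst, and scanned for total nuclear fluorescence. Compounds raising the fraction of nuclei with elevated DNA content count as re-replication inducers.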

[22] = molecular target: Cytochrome P450 3A4 (Homo sapiens) (UniProt P08684); assay: qHTS Assay for Inhibitors and Substrates of Cytochrome P450 3A4 (AID 884); note: potency is the fitted concentration of half-maximal effect; nearly all actives have a fitted effect of over 50% in size
Outline: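 20 nM human CYP3A4 with 25 uM Luciferin-PPXE (at KM) in 200 mM KPO4, preincubated 10 min with compound; NADPH regeneration started a 60 min RT reaction. Luciferin detected by luminescence, normalized to 57 uM ketoconazole as full inhibition.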

[23] = molecular target: Cytochrome P450 2C19 (Homo sapiens) (UniProt P33261); assay: qHTS Assay for Inhibitors and Substrates of Cytochrome P450 2C19 (AID 899); note: potency is the fitted concentration of half-maximal effect; nearly all actives have a fitted effect of over 60% in size
Outline: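 NADPH-dependent conversion of Luciferin-H EGE (10uM, at KM) by 5nM enzyme in 50mM KPO4, 60 min at 37C following 10 min compound preincubation. Stopped with luciferin detection buffer; luminescence read after 20 min.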

[24] = qHTS Assay for Identification of Small Molecule Agonists for Hypoxia Response Element Signaling Pathway (AID 914; active = well fitted activation curve with a large enough effect in the signal ratio, with a control signal flat, not every such curve was filed as active; inconclusive = small, poorly fitted or top-dose-only effect, or effect the other way, or a change in a side signal; the % refers to the signal ratio; note: top concentration of the series differs between compounds; % of control where 0% means no effect); settings: ME-180 (cervical carcinoma) HRE-bla reporter, beta-lactamase ratio, CoCl2, 17 h; activation: stronger effect = higher value
Outline: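 In Opti-MEM containing 0.5% dialyzed FBS and 10 mM HEPES, ME-180 HRE-bla cells received a compound titration and EC50 CoCl2. They were incubated 17 hours, then CCF4-loaded 2.5 hours at room temperature before ratio reading.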

[25] = molecular target: Ubiquitin carboxyl-terminal hydrolase 1 (Homo sapiens) (UniProt O94782); assay: Inhibitors of USP1/UAF1: Pilot qHTS (AID 504865);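 note: rhodamine fluorescence freed from ubiquitin-rhodamine substrate followed over time; potency is the fitted concentration of half-maximal effect; nearly all actives have a fitted effect of over 35% in size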
Outline: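 In 50mM HEPES pH 7.8 containing 0.5mM EDTA, 1mM TCEP, 0.1 mg/ml BSA and 0.01% Tween-20, 1nM USP1/UAF1 is exposed to compound for 15 min, then Ub-Rho (150nM final) is added and fluorescence is read over time.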
Tags give direction and shape of the fitted curve.

UniProt P08482, sequence (P08482 whole entry, looked up): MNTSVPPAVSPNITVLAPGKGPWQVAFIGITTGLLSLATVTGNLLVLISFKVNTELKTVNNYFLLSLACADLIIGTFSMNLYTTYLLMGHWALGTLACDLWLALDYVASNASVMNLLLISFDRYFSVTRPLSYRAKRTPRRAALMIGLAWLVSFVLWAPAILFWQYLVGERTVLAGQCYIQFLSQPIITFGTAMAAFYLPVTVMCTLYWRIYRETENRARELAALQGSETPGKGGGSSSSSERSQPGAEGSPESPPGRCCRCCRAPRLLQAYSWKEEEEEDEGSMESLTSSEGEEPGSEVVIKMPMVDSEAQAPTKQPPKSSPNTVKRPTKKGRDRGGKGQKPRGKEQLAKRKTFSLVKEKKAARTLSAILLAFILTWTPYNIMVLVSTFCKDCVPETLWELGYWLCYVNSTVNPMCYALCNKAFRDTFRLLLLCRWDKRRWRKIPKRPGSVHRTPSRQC
UniProt P11712, sequence (P11712 whole entry, looked up): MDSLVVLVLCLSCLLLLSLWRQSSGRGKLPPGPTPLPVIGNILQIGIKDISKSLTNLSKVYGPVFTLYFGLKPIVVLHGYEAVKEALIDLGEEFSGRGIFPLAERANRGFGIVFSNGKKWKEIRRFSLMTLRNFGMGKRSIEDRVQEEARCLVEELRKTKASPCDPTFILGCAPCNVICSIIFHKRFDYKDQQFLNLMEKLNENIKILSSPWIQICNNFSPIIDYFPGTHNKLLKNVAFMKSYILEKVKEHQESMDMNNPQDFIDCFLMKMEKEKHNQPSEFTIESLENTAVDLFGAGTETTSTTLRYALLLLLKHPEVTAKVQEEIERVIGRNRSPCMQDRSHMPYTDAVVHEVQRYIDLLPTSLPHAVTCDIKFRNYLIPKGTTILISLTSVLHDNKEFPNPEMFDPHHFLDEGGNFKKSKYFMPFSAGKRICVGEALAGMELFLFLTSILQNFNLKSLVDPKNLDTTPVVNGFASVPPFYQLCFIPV
UniProt Q9HAZ1, sequence (Q9HAZ1 whole entry, looked up): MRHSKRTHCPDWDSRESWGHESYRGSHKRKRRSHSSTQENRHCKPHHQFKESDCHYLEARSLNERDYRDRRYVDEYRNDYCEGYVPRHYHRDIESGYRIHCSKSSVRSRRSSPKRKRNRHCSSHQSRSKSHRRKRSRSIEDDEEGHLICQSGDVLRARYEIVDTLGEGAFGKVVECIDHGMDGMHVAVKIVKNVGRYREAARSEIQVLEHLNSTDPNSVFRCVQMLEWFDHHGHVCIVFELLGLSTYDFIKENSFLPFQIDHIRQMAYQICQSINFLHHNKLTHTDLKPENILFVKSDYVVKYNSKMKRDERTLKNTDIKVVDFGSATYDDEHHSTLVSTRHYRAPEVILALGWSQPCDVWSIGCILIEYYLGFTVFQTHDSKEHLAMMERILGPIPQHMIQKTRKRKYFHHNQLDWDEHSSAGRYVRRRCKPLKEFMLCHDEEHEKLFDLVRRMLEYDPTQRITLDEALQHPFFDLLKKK
UniProt P54132, sequence (P54132 whole entry, looked up): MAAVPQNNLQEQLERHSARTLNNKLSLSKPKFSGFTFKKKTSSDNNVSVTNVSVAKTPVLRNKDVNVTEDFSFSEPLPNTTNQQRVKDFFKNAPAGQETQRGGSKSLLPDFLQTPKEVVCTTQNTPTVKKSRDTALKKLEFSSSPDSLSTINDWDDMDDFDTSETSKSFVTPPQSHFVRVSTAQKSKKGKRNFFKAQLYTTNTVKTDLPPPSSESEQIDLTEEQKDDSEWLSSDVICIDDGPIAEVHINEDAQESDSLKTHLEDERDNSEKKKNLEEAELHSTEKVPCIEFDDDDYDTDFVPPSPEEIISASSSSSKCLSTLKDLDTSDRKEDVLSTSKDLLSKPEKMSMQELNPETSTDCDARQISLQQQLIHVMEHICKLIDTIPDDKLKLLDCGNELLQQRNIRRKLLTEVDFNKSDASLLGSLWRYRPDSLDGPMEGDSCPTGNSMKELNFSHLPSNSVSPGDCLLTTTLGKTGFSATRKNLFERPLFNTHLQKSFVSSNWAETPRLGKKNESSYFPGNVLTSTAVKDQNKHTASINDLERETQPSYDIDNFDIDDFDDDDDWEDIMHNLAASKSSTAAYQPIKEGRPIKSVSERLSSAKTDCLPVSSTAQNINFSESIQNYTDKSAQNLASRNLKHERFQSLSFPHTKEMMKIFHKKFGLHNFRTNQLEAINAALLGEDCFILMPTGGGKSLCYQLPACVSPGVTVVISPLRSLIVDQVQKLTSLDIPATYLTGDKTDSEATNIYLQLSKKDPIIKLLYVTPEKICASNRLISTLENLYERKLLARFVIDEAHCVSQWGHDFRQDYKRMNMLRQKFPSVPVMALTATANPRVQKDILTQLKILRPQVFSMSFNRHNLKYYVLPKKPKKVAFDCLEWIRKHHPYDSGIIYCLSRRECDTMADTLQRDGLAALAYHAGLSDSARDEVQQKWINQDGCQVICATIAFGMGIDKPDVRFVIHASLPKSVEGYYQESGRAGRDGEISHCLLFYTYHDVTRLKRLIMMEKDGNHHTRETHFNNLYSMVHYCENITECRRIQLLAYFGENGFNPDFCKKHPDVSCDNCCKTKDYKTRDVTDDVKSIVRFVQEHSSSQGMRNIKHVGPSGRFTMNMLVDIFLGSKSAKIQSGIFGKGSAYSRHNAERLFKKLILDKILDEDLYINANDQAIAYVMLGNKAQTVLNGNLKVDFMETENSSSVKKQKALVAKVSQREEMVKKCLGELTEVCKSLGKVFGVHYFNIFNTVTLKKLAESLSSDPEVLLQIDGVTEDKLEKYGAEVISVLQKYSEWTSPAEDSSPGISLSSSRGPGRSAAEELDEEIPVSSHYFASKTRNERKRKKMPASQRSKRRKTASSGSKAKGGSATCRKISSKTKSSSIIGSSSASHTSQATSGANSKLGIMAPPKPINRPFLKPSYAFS
UniProt Q07343, sequence (Q07343 whole entry, looked up): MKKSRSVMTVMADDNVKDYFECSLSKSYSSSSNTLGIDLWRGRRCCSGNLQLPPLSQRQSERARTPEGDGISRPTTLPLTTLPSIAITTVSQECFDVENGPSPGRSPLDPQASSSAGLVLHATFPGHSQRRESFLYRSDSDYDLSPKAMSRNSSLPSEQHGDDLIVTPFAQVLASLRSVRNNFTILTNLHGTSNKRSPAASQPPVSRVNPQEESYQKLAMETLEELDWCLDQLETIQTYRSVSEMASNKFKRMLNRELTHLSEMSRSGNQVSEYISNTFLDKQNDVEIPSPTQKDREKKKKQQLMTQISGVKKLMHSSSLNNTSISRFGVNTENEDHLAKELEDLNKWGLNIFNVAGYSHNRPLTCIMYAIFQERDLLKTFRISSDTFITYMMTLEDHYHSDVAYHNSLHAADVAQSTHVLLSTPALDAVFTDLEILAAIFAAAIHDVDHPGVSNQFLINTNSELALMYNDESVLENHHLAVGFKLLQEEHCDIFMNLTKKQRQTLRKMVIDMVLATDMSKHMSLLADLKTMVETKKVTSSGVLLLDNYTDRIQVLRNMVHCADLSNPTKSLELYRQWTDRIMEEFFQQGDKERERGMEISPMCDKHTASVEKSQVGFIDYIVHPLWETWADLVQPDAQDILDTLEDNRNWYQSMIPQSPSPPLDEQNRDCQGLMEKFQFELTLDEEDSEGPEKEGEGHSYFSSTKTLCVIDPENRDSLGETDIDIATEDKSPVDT
UniProt P33261, sequence (P33261 whole entry, looked up): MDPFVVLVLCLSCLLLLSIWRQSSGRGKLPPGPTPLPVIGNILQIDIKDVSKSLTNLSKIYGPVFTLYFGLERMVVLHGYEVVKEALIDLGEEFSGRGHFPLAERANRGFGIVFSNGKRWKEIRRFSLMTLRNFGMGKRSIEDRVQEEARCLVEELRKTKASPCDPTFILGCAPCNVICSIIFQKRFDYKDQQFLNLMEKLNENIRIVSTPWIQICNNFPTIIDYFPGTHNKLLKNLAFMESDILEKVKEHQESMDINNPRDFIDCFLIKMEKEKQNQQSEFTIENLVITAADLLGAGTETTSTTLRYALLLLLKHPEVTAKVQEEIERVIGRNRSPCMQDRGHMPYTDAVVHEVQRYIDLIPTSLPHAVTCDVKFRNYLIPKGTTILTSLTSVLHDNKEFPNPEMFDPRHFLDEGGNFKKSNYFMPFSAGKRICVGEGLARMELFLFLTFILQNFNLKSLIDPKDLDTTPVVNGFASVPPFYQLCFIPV
UniProt Q27686, sequence (Q27686 whole entry, looked up): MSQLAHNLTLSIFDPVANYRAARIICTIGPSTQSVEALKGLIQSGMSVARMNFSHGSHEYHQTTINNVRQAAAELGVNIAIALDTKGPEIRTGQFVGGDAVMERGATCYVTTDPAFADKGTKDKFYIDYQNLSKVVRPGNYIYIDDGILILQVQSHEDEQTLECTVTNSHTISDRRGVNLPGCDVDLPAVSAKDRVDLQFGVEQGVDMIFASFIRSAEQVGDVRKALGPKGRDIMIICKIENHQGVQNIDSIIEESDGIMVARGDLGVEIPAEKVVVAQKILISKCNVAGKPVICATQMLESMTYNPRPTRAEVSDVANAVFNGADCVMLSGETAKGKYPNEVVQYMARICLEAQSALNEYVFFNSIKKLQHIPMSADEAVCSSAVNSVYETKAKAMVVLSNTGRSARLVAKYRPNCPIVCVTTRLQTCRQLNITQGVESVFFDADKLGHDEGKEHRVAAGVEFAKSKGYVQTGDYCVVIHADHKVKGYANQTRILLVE
UniProt P02791, sequence (P02791 2-175 limits assumed): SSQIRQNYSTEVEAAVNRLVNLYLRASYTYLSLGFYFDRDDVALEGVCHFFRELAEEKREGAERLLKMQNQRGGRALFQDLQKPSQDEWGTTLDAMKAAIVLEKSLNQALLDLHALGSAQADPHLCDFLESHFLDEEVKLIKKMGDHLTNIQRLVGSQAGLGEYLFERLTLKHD

Question: For `N=C1Sc2ccccc2C2=NCCCN12`, which activity change, negative = inhibition [1] is on record?
Answer: inconclusive: -39.1% [inhibitor] [at 38 µM]

Question: And the Potency [2]?
Answer: active: 0.794 µM

Question: What about the Potency [3] of the same molecule?
Answer: inconclusive: 15.8 µM [inhibitor, partial curve]

Question: What about the Potency [4] of the same molecule?
Answer: inconclusive: 2 µM [inhibitor, partial curve]

Question: And the Potency [5]?
Answer: inconclusive: 0.0355 µM [inhibitor, full curve, poor fit]

Question: What about the Potency [6] of the same molecule?
Answer: inactive

Question: What about the Potency [7] of the same molecule?
Answer: active: 7.94 µM

Question: And the Potency [8]?
Answer: inconclusive: 10 µM [activator, partial curve]

Question: What about the Potency [9] of the same molecule?
Answer: inconclusive: 17.8 µM [inhibitor, single point]

Question: What about the Potency [10] of the same molecule?
Answer: inconclusive: 17.8 µM [inhibitor, single point]

Question: What about the Potency [11] of the same molecule?
Answer: inactive

Question: And the Potency [12]?
Answer: inconclusive: 0.794 µM [activator, full curve, poor fit]

Question: What about the Potency [13] of the same molecule?
Answer: inconclusive: 10 µM [inhibitor, single point]

Question: What about the Potency [14] of the same molecule?
Answer: inactive

Question: Which Potency [9] does the source give for `CCCC1O[C@@H]2C[C@H]3[C@@H]4CCC5=CC(=O)C=C[C@]5(C)C4[C@@H](O)C[C@]3(C)[C@]2(C(=O)CO)O1` (some centres not stated) here?
Answer: active: 2.24 µM

Question: What about the Potency [15] of the same molecule?
Answer: active: 11.2 µM

Question: What about the Potency [16] of the same molecule?
Answer: inconclusive: 0.316 µM [inhibitor, full curve]

Question: What about the Potency [17] of the same molecule?
Answer: active: 2.94 µM

Question: Which Potency [18] does the source give for `COc1ccc(CNc2ncncc2-c2cccc(C#N)c2)c(OC)c1` here?
Answer: inconclusive: 0.251 µM [inhibitor, full curve, poor fit]

Question: And the Potency [19]?
Answer: inconclusive: 14.1 µM [falling, single point]

Question: With `Cc1cn([C@H]2C[C@@H](N=[N+]=[N-])[C@@H](CO)O2)c(=O)[nH]c1=O` as the molecule, how does the Potency [9] read?
Answer: inactive

Question: And the Potency [12]?
Answer: inactive

Question: What about the Potency [20] of the same molecule?
Answer: inconclusive: 47.8 µM [cytotoxic, partial curve]

Question: What about the Potency [16] of the same molecule?
Answer: inconclusive: 0.0025 µM [inhibitor, full curve]

Question: What about the Potency [21] of the same molecule?
Answer: inactive

Question: Which Potency [18] does the source give for `Cc1cccc(CNc2ccnc(-c3ccccc3C(F)(F)F)n2)c1` here?
Answer: inconclusive: 6.31 µM [rising, partial curve]

Question: And the Potency [2]?
Answer: inconclusive: 1.26 µM [inhibitor, single point]

Question: And the Potency [22]?
Answer: inconclusive: 3.16 µM [inhibitor, partial curve]

Question: What about the Potency [23] of the same molecule?
Answer: inconclusive: 6.31 µM [inhibitor, full curve, poor fit]

Question: What about the activation [24] of the same molecule?
Answer: inactive: -2.48%

Question: What about the Potency [19] of the same molecule?
Answer: inactive

Question: And the Potency [25]?
Answer: active: 3.98 µM
